From PubChem BioAssay AID686979 (National Center for Advancing Translational Sciences (NCATS), 2013)
Values joined by “and” are separate entries in the source; they are usually repeats but may differ in a detail not shown here. Equal entries are not always repeated. The whole screen tested about 420,000 compounds, of which about 50,000 (12%) were called active. This list was built around the results that the source calls inconclusive (neither active nor inactive); the mix of calls is not that of the screen. The call rests on the fitted dose curve; in most records, active means well fitted inhibition curve with a large enough effect; inconclusive means small, poorly fitted or top-dose-only effect; inactive means flat fitted curve, though single readings scatter. Potencies of inconclusive entries are doubtful fits and often do not repeat.

Experiment: qHTS for Inhibitors of human tyrosyl-DNA phosphodiesterase 1 (TDP1): qHTS in cells in presence of CPT; further: nearly all actives have a fitted effect of over 55% in size
Settings: chicken DT40 Tdp1-/-;hTDP1 cells + 20 nM CPT, ATP luminescence, 48 h; activity change, negative = growth inhibition: at 46.2 µM (top of the series) unless noted
How it was run: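 Cell growth measured by CellTiter-Glo luminescence after a minimum 48 h, 37 C compound exposure with 20 nM CPT in Tdp1-knockout DT40 cells stably expressing hTDP1, seeded 400/well; qHTS titration format.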
On the % scale 0 is the no-effect control and ±100 the full control effect; potency means the concentration at half of the fitted maximal effect; tags describe the fitted curve by direction and shape.

Compound	Potency	activity change, negative = growth inhibition
COC(=O)C1=C(c2ccc(F)cc2F)C[C@@H]2CC[C@H]1N2C(=O)NC1CC1	inconclusive: 29.1 µM [inhibitor, single point]	
CCCC1=C(C(=O)OCC)C2(C(=O)Nc3ccccc32)C(C#N)=C(N)O1 (configuration not stated)	inconclusive: 29.1 µM [inhibitor, single point]	
COc1ccc(CNCCc2ccc3c(c2)OCO3)c(OC)c1OC	inconclusive: 29.1 µM [inhibitor, single point]	
Cc1cccc(Oc2nc3c(C)cccn3c(=O)c2/C=C(\C#N)c2nc3ccccc3s2)c1	inconclusive: 0.731 µM [inhibitor, full curve, poor fit]	
CC(C)CN1CC[C@@]2(CCCN(C(=O)c3ccncc3)C2)C1	inactive	
O=[N+]([O-])c1ccc(-c2ccccc2)c([As](=O)(O)O)c1	active: 13 µM	
NC(=Nc1ccccc1)NN=Cc1c[nH]c2ccccc12	active: 1.03 µM	
O=C1NC(=O)N(c2ccccc2)C(=O)/C1=C/c1coc2ccc(O)cc2c1=O	active: 23.1 µM	
CCOC(=O)c1ccc(NC(=O)c2cccn(Cc3ccccc3F)c2=O)cc1	inconclusive: 9.2 µM [inhibitor, partial curve]	
CCOc1ccc(CCNC(=O)c2cc3c(-c4cccc(OC)c4)nn(C)c3s2)cc1OCC	inconclusive: 18.4 µM [inhibitor, single point]	
CN1CCN(c2ccccc2NC(=O)c2ccc(-c3ccc(Cl)c(Cl)c3)o2)CC1	active: 18.4 µM	
CC(=O)[C@H]1[C@H](C#N)C[C@H]2[C@@H]3CC=C4C[C@@H](O)CC[C@]4(C)[C@H]3CC[C@@]21C	inconclusive: 17.8 µM [inhibitor, single point] and inconclusive: 20.6 µM [inhibitor, single point]	
O=C(Oc1ccccc1)N1CCC2(CC1)CN(C(c1ccccc1)c1ccccc1)C2	inactive	
O=S(=O)(O)C(F)(F)C(F)(F)C(F)(F)C(F)(F)C(F)(F)C(F)(F)C(F)(F)C(F)(F)F	inactive	
CC1CC(C)CN(S(=O)(=O)c2ccc3c(c2)oc(=O)n3CC(=O)NCc2cccnc2)C1 (configuration not stated)	inconclusive: 18.4 µM [inhibitor, partial curve]	
COc1ccc(NC(c2ccccc2F)P(=O)(Oc2ccccc2)Oc2ccccc2)cc1 (configuration not stated)	inconclusive: 20.6 µM [inhibitor, single point]	
Cc1ccc(C(=O)NC(O)C(Cl)(Cl)Cl)cc1 (configuration not stated)	inactive	
O=C1Nc2cc(Cl)c(Cl)cc2N2CCNC[C@H]12	inactive	
CCOP(=O)(Nc1ccc2c(c1)C(=NNC(N)=S)c1ccccc1-2)OCC	active: 18.4 µM	
CCCCOP(=O)(OCCCC)C(Nc1ccc(C(=O)OCC)cc1)c1ccncc1 (configuration not stated)	inconclusive: 23.1 µM [inhibitor, single point]	
O=C(Nc1nc(-c2ccccc2)c(-c2ccccc2)s1)c1ccc(S(=O)(=O)N(CCCl)CCCl)cc1	inactive	
CCCCn1c(-c2nonc2NC(=O)c2ccccc2Cl)nc2ccccc21	active: 10.3 µM	
O=C(N/N=C/c1ccccc1OC(=O)N1CCOCC1)c1cccs1	active: 4.11 µM	
O=C(Nc1cccc(F)c1)N1CC2(CCNCC2)C1	active: 8.2 µM	

Compound	Potency	activity change, negative = growth inhibition
CCOP(=O)(/C=C(\Cl)c1ccccc1)C(O)c1ccc(F)cc1 (configuration not stated)	inconclusive: 18.4 µM [inhibitor, single point]	
CN=C(SCc1cc2c(cc1Cl)OCO2)c1c(O)n(C)c(=O)n(C)c1=O	inconclusive: 20.6 µM [inhibitor, partial curve]	
COc1ccccc1-n1c(-c2ccccc2Cl)nc2ccccc2c1=O	inconclusive: 29.1 µM [inhibitor, single point]	
ClC1C(Cl)C(Cl)C(Cl)C(Cl)C1Cl (configuration not stated)	inconclusive: 25.9 µM [inhibitor, single point]	
Cn1c(O)c(C(=Nc2ccc(F)cc2)c2ccccc2Cl)c(=O)n(C)c1=O	inconclusive: 23.1 µM [inhibitor, single point]	
Cc1ccc(CNCc2c(C(=O)O)n(Cc3ccccc3C)c3cc(C)ccc23)cc1	inconclusive: 29.1 µM [inhibitor, single point]	
c1cnc(OCCN2CC2)cn1	active: 8.2 µM	
N#CC(C#N)=NNc1ccc(S(=O)(=O)N2CCCC2)cc1	inconclusive: 18.4 µM [inhibitor, single point]	
CCOC(=O)c1ccc(N2C(=O)CC(N3CCC(O)(c4ccc(Br)cc4)CC3)C2=O)cc1 (configuration not stated)	inconclusive: 32.6 µM [inhibitor, single point]	
Cc1ccc(OCC(=O)N2CCCC(N3CCN(c4ccc(F)cc4)CC3)C2)cc1 (configuration not stated)	inconclusive: 29.1 µM [inhibitor, single point]	
CC(=O)[C@H]1CCC2C3CC[C@H]4C[C@@H](O)CC[C@]4(C)C3CC[C@@]21C (some centres not stated)	inconclusive: 29.1 µM [inhibitor, single point]	
Cc1ccc2cc3c(ccc4ccccc43)c3c2c1CC3	inconclusive: 29.1 µM [inhibitor, single point]	
Cc1ccc(-n2c(/C=C/c3ccccc3)nc3ccccc3c2=O)cc1Cl	inconclusive: 18.4 µM [inhibitor, single point]	
CCCCCSc1cc(OC)c(CCN)cc1OC	active: 5.8 µM	
C[C@]12CCC3C(CC[C@H]4[C@H](O)[C@H](O)CC[C@]34C)C1CC[C@@H]2O (some centres not stated)	inactive	
COC(=O)C1=C(c2ccccc2)C[C@@H]2CC[C@H]1N2C(=O)NCCS(C)=O (some centres not stated)	inactive	
Cn1cccc1/C=C1\C(=O)NC(=O)N(Cc2ccccc2)C1=O	active: 5.8 µM	
CN(CC=CCN(C)P(=S)(N1CC1)N1CC1)P(=S)(N1CC1)N1CC1	active: 1.64 µM	
Cc1c(C(=O)OC2CCCCC2)[nH]c2c1C(=O)CC(c1ccccc1)C2 (configuration not stated)	active: 4.61 µM	
Cn1c(=O)n(C)c2cc(CNCCc3ccccc3F)ccc21	inconclusive: 14.6 µM [inhibitor, partial curve]	
Nc1nnc(Sc2ncccc2[N+](=O)[O-])s1	inconclusive: 29.1 µM [inhibitor, single point]	
O=C(CN1CCCC2CCCCC21)c1ccc(I)cc1 (configuration not stated)	inactive	
CCCCCCn1c(=O)c(C(=O)Nc2ncccc2O)c(O)c2ccccc21	active: 5.17 µM	
CCc1cc2c(=O)n(C(C)C(=O)OC3CCCCC3)cnc2s1 (configuration not stated)	inconclusive: 14.6 µM [inhibitor, partial curve]	

Compound	Potency	activity change, negative = growth inhibition
Cc1ccccc1OP(=O)(Oc1ccccc1C)N1CCOCC1	inconclusive: 20.6 µM [inhibitor, single point]	
C[C@]12CC[C@H](O)C[C@@H]1CC[C@@H]1[C@@H]2CC[C@]2(C)[C@@H](C(=O)O)C[C@@H]12	inactive	
CCc1ccc(CNCCc2c[nH]c3ccccc23)cc1	inconclusive: 29.1 µM [inhibitor, single point]	
CCOC(=O)c1c(C)n(Cc2ccc3c(c2)OCO3)c2ccc(O)cc12	inconclusive: 23.1 µM [inhibitor, single point]	
CCCCC[C@@H](/C=C/C=C\C/C=C\C/C=C\CCCC(=O)O)OO		inactive: -23.3% [at 0.628 µM]
CCCCn1c(O)c(C(CC)=NCc2ccc(F)cc2)c(=O)[nH]c1=O	inconclusive: 20.6 µM [inhibitor, single point]	
CC(C)OC(=O)c1c(N)n(CC2CCCO2)c2nc3ccccc3nc12 (configuration not stated)	inconclusive: 29.1 µM [inhibitor, single point]	
Cc1ccc(C)c(N2CCN(C(=O)CCNS(=O)(=O)c3ccc4c(c3)oc(=O)n4C)CC2)c1	inconclusive: 23.1 µM [inhibitor, single point]	
CCOc1ccc(-c2cn3c(n2)sc2cc(C(=O)N4CCCC(C)C4)ccc23)cc1 (configuration not stated)	active: 10.3 µM	
O=C1NC(=S)NC(=O)C1c1ccccc1	inactive	
COc1cccc(N2C(=O)NC(=O)/C(=C/c3ccc4c(c3)Cc3ccccc3-4)C2=O)c1	inconclusive: 29.1 µM [inhibitor, partial curve, poor fit]	
O=C(N/N=C/c1cc(Br)c(Br)s1)c1ccncc1	active: 13 µM	
CCOc1ccc(-n2c(O)c(N=Nc3c(C)n(C)n(-c4ccccc4)c3=O)c(=O)[nH]c2=O)cc1	inactive	
Oc1ccccc1C1NCc2ccccc2-n2cccc21 (configuration not stated)	inconclusive: 25.9 µM [inhibitor, single point]	
COc1ccc(CN2Cc3cc(-c4ccc(OC)cc4)ccc3-n3nncc3C2)cc1	active: 20.6 µM	
C=CCn1c(C)c(C=C2C(=O)NC(=O)NC2=O)c2ccccc21	inconclusive: 29.1 µM [inhibitor, single point]	
Cc1[nH]n(-c2ccccc2)c(=O)c1C(C[N+](=O)[O-])c1ccccc1Cl (configuration not stated)	active: 20.6 µM	
O=C(CN1CC=C(c2ccccc2)CC1)NC(=O)NCc1ccccc1	inconclusive: 29.1 µM [inhibitor, single point]	
Cc1ccccc1CN1CCN(c2ccc(Cl)cc2)CC1	inactive	
O[N+]1=CC=CCC1=S.On1ccccc1=S.[Zn]	active: 0.0326 µM	
O=P(N1CCCCCC1)(N1CCCCCC1)N1CC1	inconclusive: 18.4 µM [inhibitor, partial curve]	
CCC(C)(C)NC(=O)Cn1c(=O)oc2cc(S(=O)(=O)N3CC(C)CC(C)C3)ccc21 (configuration not stated)	inconclusive: 25.9 µM [inhibitor, single point]	
CC(=O)OC1(c2ccccc2)CCN(C)C2CCCCC21 (configuration not stated)	inactive	
CN1/C(=C\C=C2C(=O)NC(=O)NC2=O)C(C)(C)c2ccccc21	inconclusive: 9.2 µM [inhibitor, partial curve]	
